The values below are quoted from earlier work in patent publication US12492243B2, “DNA antibody constructs for use against Pseudomonas aeruginosa” (priority 2016, dated 2025).

The subject of this series is P. aeruginosa clinical isolates. As to conditions: diverse serotypes, multiple type 3 secretion phenotypes, multiple infection sites.

B1: anti-PcrV: bioprocessed anti-Pseudomonal IgG mAb, single specificity for P. aeruginosa PcrV protein (antibody)
heavy: EVQLLESGGGLVQPGGSLRLSCAASGFTFSSYAMNWVRQAPGKGLEWVSAITMSGITAYYTDDVKGRFTISRDNSKNTLYLQMNSLRAEDTAVYYCAKEEFLPGTHYYYGMDVWGQGTTVTVSS[letters of human IgG1 constant region omitted]
light: [letters of about 200 residues omitted]
modifications: amino acid sequence of pGX9308 V2L2MD heavy chain; amino acid sequence of pGX9309 V2L2MD light chain
notes: bioprocessed anti-Pseudomonal IgG mAb, single specificity for P. aeruginosa PcrV protein
Take B1: the “protection against P. aeruginosa clinical isolates” value is “protective”.
